{
  "source": "PubChem BioAssay AID886",
  "about": "(National Center for Advancing Translational Sciences (NCATS), 2007)",
  "note": "The campaign covered roughly 73,000 compounds. About 2,500 (3.4%) were called active. The shares of active, inactive and inconclusive entries below differ from those in the screen. The call rests on the fitted dose curve; in most records, active means well fitted inhibition curve with a large enough effect; inconclusive means small, poorly fitted or top-dose-only effect; inactive means no such curve, though single readings can be large or run the other way. Potencies of inconclusive entries are doubtful fits and often do not repeat. On the % scale 0 is the no-effect control and ±100 the full control effect; potency means the concentration at half of the fitted maximal effect; tags describe the fitted curve by direction and shape.",
  "data": [
    {"biological_target": "3-hydroxyacyl-CoA dehydrogenase type-2 (Homo sapiens) (UniProt Q99714)", "experiment": "qHTS Assay for Inhibitors of HADH2 (Hydroxyacyl-Coenzyme A Dehydrogenase, Type II); further: nearly all actives have a fitted effect of over 60% in size", "conditions": "recombinant HADH2, NADH fluorescence, beta-hydroxybutyryl-CoA; activity change, negative = inhibition: at 57.1 µM (top of the series)", "summary_of_the_method": "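E. coli-expressed His-tagged HADH2 tested at 20 nM in alkaline Tris buffer (pH 9.0); oxidation of 90 uM beta-hydroxybutyryl-CoA with 1 mM NAD+ tracked fluorimetrically for 4 min.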", "values": [
      {"compound": "CCSc1nc2ccccc2n1CC(=O)OC", "Potency": "inconclusive: 31.6 µM [inhibitor, single point]"},
      {"compound": "O=C(Nc1nncs1)c1ccccc1NS(=O)(=O)c1cccs1", "Potency": "active: 31.6 µM"},
      {"compound": "COc1ncc2nc(-c3ccccc3)c(=O)n(Cc3cccs3)c2n1", "Potency": "inconclusive: 39.8 µM [inhibitor, single point]"},
      {"compound": "CCOc1cc(-c2ccc3c(c2)OCO3)cc(=O)c2c(C)oc(C)c12", "Potency": "inconclusive: 31.6 µM [inhibitor, single point]"},
      {"compound": "COC(=O)c1sccc1NC(=O)c1c(C)noc1C", "Potency": "inconclusive: 15.8 µM [inhibitor, partial curve]"},
      {"compound": "CCOC(=O)CS(=O)(=O)c1nc(-c2ccccc2)cc(C(F)(F)F)n1", "Potency": "active: 20 µM"},
      {"compound": "O=C(O)CNS(=O)(=O)c1cc(Cl)c(Cl)cc1Cl", "Potency": "inactive"},
      {"compound": "COc1ccc2[nH]c(I)c(CCNC(C)=O)c2c1", "Potency": "inactive"},
      {"compound": "COc1ccc(-c2nc3c(c(=O)n(C)c(=O)n3C)n2CC2CC(c3ccccc3)=NO2)cc1OC", "note": "(configuration not stated)", "Potency": "inconclusive: 39.8 µM [inhibitor, single point]"},
      {"compound": "O=C(CN1C(=O)C2C3C=CC(C3)C2C1=O)Nc1ccc2nccnc2c1", "note": "(configuration not stated)", "Potency": "active: 20 µM"},
      {"compound": "C[C@@H]1[C@H](O)[C@@H](C)/C=C/C=C/C=C/C=C/C=C/C=C/C=C/[C@H](O[C@@H]2O[C@H](C)[C@@H](O)[C@H](N)[C@@H]2O)C[C@@H]2O[C@](O)(C[C@@H](O)C[C@@H](O)[C@H](O)CC[C@@H](O)C[C@@H](O)CC(=O)O[C@H]1C)C[C@H](O)[C@H]2C(=O)O", "Potency": "inconclusive: 39.8 µM [inhibitor, single point]"},
      {"compound": "C/C=C1\\CC2C=CC1C2", "note": "(configuration not stated)", "Potency": "inconclusive: 39.8 µM [inhibitor, single point]"},
      {"compound": "COCCNC(=O)c1c(N)sc2c1CCCC2", "Potency": "inconclusive: 3.16 µM [inhibitor, full curve]"},
      {"compound": "Oc1c(Br)cc(CN(Cc2cc(Br)c(O)c(Br)c2)C2CCCCC2)cc1Br", "Potency": "inconclusive: 6.31 µM [inhibitor, single point]"},
      {"compound": "CCOc1cc(S(=O)(=O)N2CCN(c3ccc(F)cc3)CC2)c(OCC)cc1-n1cnnn1", "Potency": "inconclusive: 39.8 µM [inhibitor, single point]"},
      {"compound": "COCCn1c(-c2ccco2)nc2nc3ccccc3nc21", "Potency": "active: 10 µM"},
      {"compound": "Cn1cnnc1SCC(=O)Nc1sc2c(c1C(N)=O)CCC2", "Potency": "active: 12.6 µM"},
      {"compound": "CC(C)C(=O)Nc1ccccc1N1CCN(S(C)(=O)=O)CC1", "Potency": "inconclusive: 7.94 µM [inhibitor, single point]"},
      {"compound": "Cc1n[nH]c(=O)nc1NCc1ccco1", "Potency": "inconclusive: 20 µM [inhibitor, single point]"},
      {"compound": "CC1CCCC(C)N1CCCNC(=O)c1cc2c(=O)n(C)c3ccccc3c2n1C", "note": "(configuration not stated)", "Potency": "inconclusive: 39.8 µM [inhibitor, single point]"},
      {"compound": "COc1ccc(C2C(C(C)=O)=C(O)C(=O)N2CCN(C)C)cc1OC", "note": "(configuration not stated)", "Potency": "inactive"},
      {"compound": "CCCC(=O)n1nc(-c2ccc(Cl)cc2)nc1SC", "Potency": "inconclusive: 12.6 µM [inhibitor, partial curve]"},
      {"compound": "Cc1nc2ncnn2c(C)c1CCC(=O)Oc1ccccc1", "Potency": "inactive"},
      {"compound": "CCOC(=O)c1c(NC(=O)c2ccn(CC)n2)sc2c1CCCC2", "Potency": "inconclusive: 31.6 µM [inhibitor, single point]"},
      {"compound": "COc1ccc(OC)c(C(O)c2nc3ccccc3n2C(C)C)c1", "note": "(configuration not stated)", "Potency": "inconclusive: 7.94 µM [inhibitor, single point]"},
      {"compound": "CC/C=C\\CC[C@H](OC(=O)c1ccc(Br)cc1)C1=CCCCC1=O", "activity change, negative = inhibition": "inactive: -10.8% [at 11.4 µM]"},
      {"compound": "Cc1cc(C)nc(NC(=O)c2cnc3sccn3c2=O)n1", "Potency": "inconclusive: 25.1 µM [inhibitor, partial curve]"},
      {"compound": "N#Cc1ccccc1NC(=O)CSc1nnc(-c2ccccc2O)n1-c1ccccc1", "Potency": "inconclusive: 7.94 µM [inhibitor, single point]"},
      {"compound": "Oc1ccc(CN2CCCCC2)nc1-c1ccccc1", "Potency": "inconclusive: 31.6 µM [inhibitor, single point]"},
      {"compound": "CC1CN(C(=O)c2cc3c(=O)n4ccccc4nc3s2)CC(C)O1", "note": "(configuration not stated)", "Potency": "active: 31.6 µM"},
      {"compound": "CCc1cc2c(=O)c(-n3cnc4ccccc43)coc2cc1O", "Potency": "inconclusive: 31.6 µM [inhibitor, single point]"},
      {"compound": "COc1ccc(Cl)cc1C(=O)Nc1ccc(NC(=O)c2ccco2)cc1", "Potency": "inconclusive: 39.8 µM [inhibitor, single point]"},
      {"compound": "COc1ccc(C2C=C(C)Nc3nc(SC)nn32)cc1", "note": "(configuration not stated)", "Potency": "active: 25.1 µM"},
      {"compound": "c1ccc2c(c1)oc1c(N3CCOCC3)ncnc12", "Potency": "inactive"},
      {"compound": "COC(=O)c1[nH]c2cccc(OC)c2c1NC(=O)CN1CCN(c2cccc(OC)c2)C(C)C1", "note": "(configuration not stated)", "Potency": "inconclusive: 39.8 µM [inhibitor, single point]"},
      {"compound": "Cc1noc(C)c1-c1nc(Nc2ccc(F)cc2)c2ccccc2n1", "Potency": "active: 12.6 µM"},
      {"compound": "O=C(C1CC1)N1CCN=C1SCc1ccccc1Cl", "Potency": "inactive"},
      {"compound": "COc1cccc(-c2cncnc2NCCN2CCOCC2)c1", "Potency": "inconclusive: 31.6 µM [inhibitor, single point]"},
      {"compound": "CC1=C(C)NC(=S)SC1", "Potency": "active: 7.94 µM"},
      {"compound": "COc1ccccc1-c1c(C)oc2c(CN3CCN(CCO)CC3)c(O)ccc2c1=O", "Potency": "active: 25.1 µM"},
      {"compound": "Cc1ccc(P(=O)(OCCN2CCOCC2)C(C)(C)C)o1", "note": "(configuration not stated)", "Potency": "inactive"},
      {"compound": "O=C1CN(c2nc3ccccc3n3cnnc23)CC(=O)N1CCc1ccccc1", "Potency": "inconclusive: 39.8 µM [inhibitor, single point]"},
      {"compound": "CCOc1cccc(-c2nc(C(N)=O)c3[nH]c(=O)n(-c4cccc(Cl)c4)c3n2)c1O", "Potency": "inactive"},
      {"compound": "O=C(Nc1ccc(N2CCN(C(=O)c3ccco3)CC2)cc1)c1ccccc1F", "Potency": "inconclusive: 25.1 µM [inhibitor, single point]"},
      {"compound": "O=C(c1cccnc1)N1CCCc2ccccc21", "Potency": "inconclusive: 1.26 µM [inhibitor, single point]"},
      {"compound": "Cc1ccc(S(=O)(=O)Nc2ccc(S(=O)(=O)N3CCCC3)cc2)cc1", "Potency": "inconclusive: 7.94 µM [inhibitor, single point]"},
      {"compound": "CC(=O)OC[C@@H]1O[C@H](C/C=N\\OC[C@@H](C)[C@H](OCc2ccccc2)C(C)C)C=C[C@@H]1OC(C)=O", "activity change, negative = inhibition": "inactive: 5% [at 11.4 µM]"}
    ]}
  ]
}
